# Laboratory results as given in the BET-seq Pho4 binding data (Le et al. 2018).
# Some of the results follow. Values were computed here from the reads of four pooled replicates and scatter widely.
# Molecular target: T1, Pho4 (S. cerevisiae) (UniProt P07270)
# T1 sequence: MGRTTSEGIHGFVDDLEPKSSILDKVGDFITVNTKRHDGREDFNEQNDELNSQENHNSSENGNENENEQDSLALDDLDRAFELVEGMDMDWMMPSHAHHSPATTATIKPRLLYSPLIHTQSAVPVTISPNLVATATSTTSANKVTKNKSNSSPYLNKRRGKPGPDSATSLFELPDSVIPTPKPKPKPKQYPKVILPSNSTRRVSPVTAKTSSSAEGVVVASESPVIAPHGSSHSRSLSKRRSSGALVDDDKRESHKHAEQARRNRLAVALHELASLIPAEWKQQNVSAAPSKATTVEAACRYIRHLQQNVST
# Test: relative binding free energy (BET-seq); higher = weaker binding
# Conditions: reference: library average
row,Sequence,relative binding free energy
1,GGTGCCACGTGCAAGT,0.126 kJ/mol
2,TATTTCACGTGTTTTT,1 kJ/mol
3,AAGATCACGTGAGGAT,1.05 kJ/mol
4,TGGAACACGTGGGGTT,0.0837 kJ/mol
5,AGTAGCACGTGAAGGA,0.753 kJ/mol
6,TTTGCCACGTGGTGCG,-1.09 kJ/mol
7,TTTTGCACGTGGCTTC,-0.0837 kJ/mol
8,AGAGCCACGTGGGTAT,-0.0418 kJ/mol
9,GTGGTCACGTGAGTTT,1.55 kJ/mol
10,GTTTGCACGTGAATGT,0.962 kJ/mol
11,AGGTGCACGTGGAGGG,-0.251 kJ/mol
12,CGGTACACGTGTGTTT,0.251 kJ/mol
13,GATCGCACGTGAGGTT,1.38 kJ/mol
14,TGGGACACGTGATGCG,0.837 kJ/mol
15,AGAGTCACGTGCTTGG,0.293 kJ/mol
16,GGGGTCACGTGCTAAG,0.377 kJ/mol
17,CTTTACACGTGGTCTG,0.167 kJ/mol
18,TCTGCCACGTGTGGTA,-0.0418 kJ/mol
19,TGGCGCACGTGGCGGT,-0.586 kJ/mol
20,GTGCTCACGTGAGGTT,0.92 kJ/mol
21,GGTCGCACGTGGTCGT,-0.46 kJ/mol
22,GTAATCACGTGGAATG,0.335 kJ/mol
23,ATGGTCACGTGATCGG,1.13 kJ/mol

row,Sequence,relative binding free energy
1,GTGGCCACGTGAGTAT,0.669 kJ/mol
2,ACGGTCACGTGCGTGG,0.126 kJ/mol
3,GAGGTCACGTGGTGGT,0.837 kJ/mol
4,TTGAGCACGTGTTGGT,-0.209 kJ/mol
5,ATTGCCACGTGTAAGG,0.209 kJ/mol
6,TTTAACACGTGGTCTG,-0.377 kJ/mol
7,TTGTGCACGTGTTGGG,0.0837 kJ/mol
8,TTCGGCACGTGTAGGA,-0.418 kJ/mol
9,AGATGCACGTGGAATT,0.335 kJ/mol
10,AATACCACGTGTTGTT,-0.293 kJ/mol
11,AGTTCCACGTGTATGG,0.293 kJ/mol
12,TTCGGCACGTGGTTCG,-0.418 kJ/mol
13,GAGGGCACGTGCCTTG,-0.335 kJ/mol
14,TTTTACACGTGCGCTT,0.418 kJ/mol
15,GCTGGCACGTGAGTGG,0.879 kJ/mol
16,ATAGTCACGTGGTTAT,0 kJ/mol
17,AGTGGCACGTGGCACT,-0.126 kJ/mol
18,TAGTGCACGTGTGGAG,0.209 kJ/mol
19,GCTTTCACGTGTGGCT,1.51 kJ/mol
20,GTGTCCACGTGTAGAG,0.335 kJ/mol
21,GAGATCACGTGTTGGG,1.05 kJ/mol
22,CATCGCACGTGGGCGG,-0.502 kJ/mol
23,GGCTGCACGTGGTGGG,-0.418 kJ/mol

row,Sequence,relative binding free energy
1,TGGGACACGTGGAGTA,0.0837 kJ/mol
2,AGGTGCACGTGCTAGT,-0.251 kJ/mol
3,TTGTACACGTGGAGAG,0.0837 kJ/mol
4,TAGGTCACGTGGAGGC,0.418 kJ/mol
5,ACTATCACGTGTGGTG,0.879 kJ/mol
6,ATGTACACGTGTGAGT,0.837 kJ/mol
7,AATGGCACGTGGACTG,0.126 kJ/mol
8,GGGGTCACGTGTATAT,1 kJ/mol
9,ATGGGCACGTGACTTG,-0.126 kJ/mol
10,AGGAACACGTGGTGTT,-0.377 kJ/mol
11,CGAAGCACGTGCGGGG,-0.586 kJ/mol
12,GCCTTCACGTGGGGGG,0.251 kJ/mol
13,TGGTGCACGTGAGTTG,1.3 kJ/mol
14,TTTATCACGTGGACGT,0.879 kJ/mol
15,GTCTGCACGTGTTTAT,0.293 kJ/mol
16,CTTTTCACGTGATCGT,0.628 kJ/mol
17,TCCGGCACGTGGGTTT,-0.92 kJ/mol
18,GGGATCACGTGTGCAG,0.46 kJ/mol
19,AGTGGCACGTGGGCCA,-0.753 kJ/mol
20,AGGATCACGTGGTTGA,0.46 kJ/mol
21,TGGGACACGTGGGGTT,-0.0837 kJ/mol
22,TGTCTCACGTGGGGTC,0.251 kJ/mol
23,AAGTCCACGTGTGGGG,0.251 kJ/mol

row,Sequence,relative binding free energy
1,TCGGTCACGTGGGTAG,0.251 kJ/mol
2,GTATTCACGTGGAACG,1.63 kJ/mol
3,ATTGGCACGTGGTATA,-1.13 kJ/mol
4,TATACCACGTGATGGT,0.586 kJ/mol
5,ATTTTCACGTGAGGTG,1.59 kJ/mol
6,TGTGACACGTGAAGAG,0.711 kJ/mol
7,GGGTCCACGTGGTATA,-0.126 kJ/mol
8,TAGGGCACGTGGGAGC,-0.753 kJ/mol
9,CGTGTCACGTGGTCGT,-0.0837 kJ/mol
10,TCGGGCACGTGGGGTG,-1.13 kJ/mol
11,AAAGCCACGTGGGGGT,-0.753 kJ/mol
12,AATGGCACGTGAAAGG,0.879 kJ/mol
13,ATAGGCACGTGCGCGG,-1.17 kJ/mol
14,TAATACACGTGTTGAG,0.209 kJ/mol
15,TTCGACACGTGTCTTG,0.795 kJ/mol
16,CTGGACACGTGAGTTA,0.795 kJ/mol
17,TATCGCACGTGGAGAG,-0.167 kJ/mol
18,TTAGCCACGTGGGGCT,-1.05 kJ/mol
19,GGGAGCACGTGAAAGT,1.17 kJ/mol
20,CTTGGCACGTGAGTAT,0.711 kJ/mol
21,TTTATCACGTGCTGGG,0.753 kJ/mol
22,GATTTCACGTGGGATC,1.38 kJ/mol
23,TTAAGCACGTGAAATT,1.05 kJ/mol

row,Sequence,relative binding free energy
1,TCATGCACGTGCGGGG,-0.251 kJ/mol
2,TGTATCACGTGGGCTT,0.251 kJ/mol
3,TCGTACACGTGTGTTT,0.293 kJ/mol
4,TTGAACACGTGGGCTT,0.126 kJ/mol
5,TGCGTCACGTGAATAT,0.962 kJ/mol
6,GGGGGCACGTGCAGTA,-0.46 kJ/mol
7,ATAGGCACGTGTTCTG,-0.795 kJ/mol
8,GTCTGCACGTGGTTAA,-0.0837 kJ/mol
9,GGGTTCACGTGAAGTA,1.8 kJ/mol
10,GGGGTCACGTGTGGCA,0.92 kJ/mol
11,TTAGGCACGTGATAGG,-0.167 kJ/mol
12,GTGGTCACGTGTCTCT,0.586 kJ/mol
13,AATAGCACGTGTATGT,-0.669 kJ/mol
14,TCTGACACGTGTTGGT,0.0837 kJ/mol
15,GTAATCACGTGGTAAG,0.669 kJ/mol
16,TGTCACACGTGGGGTA,-0.544 kJ/mol
17,AGGCACACGTGCGTGG,-0.167 kJ/mol
18,ATACGCACGTGGATGG,-0.669 kJ/mol
19,GAGCTCACGTGGGGTA,-0.126 kJ/mol
20,AGGGTCACGTGATCGG,0.586 kJ/mol
21,GGGTGCACGTGCGTTG,-0.251 kJ/mol
22,GTAGGCACGTGTGGCG,-0.753 kJ/mol
23,GGGGTCACGTGGAGAG,1.13 kJ/mol
